# Laboratory results published in publication PMC5892938.
# The other results are listed elsewhere or left out. At the low end of the ranking the order means little.
# Molecular target: GST-SBP-SLBP (stem-loop binding protein) (UniProt Q14493)
# Experiment: targeted RNA Bind-n-Seq;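 also: DESeq read counts versus GST-SBP nonspecific binding control pulldown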
# Settings: RBNS binding buffer: 25 mM Tris pH 7.5, 150 mM KCl, 3 mM MgCl2, 0.1% Tween, 0.5 mg/mL BSA, 1 mM DTT; 27 nM protein, 750 pM RNA pool; temperature not stated; high values mean tight binding
row,Sequence,binding signal (log2 fold change)
1,GGUCACGUCUCAAUCAACUCAUUUCCAGGAGUUUACUCCUGUUAACUCAACAGCUCGCAGUCAAG,0.0524
2,GGUCACGUCUCAAUCAACUCCCAAGAGGGGGGGAAAACCCCUUUGCCCUCAAUGUCAACAGCUCGCAGUCAAG,-0.257
3,GGUCACGUCUCAAUCAACUCUAUCUCAGGAGUUUUCUCCUGUAAAUUCAACAGCUCGCAGUCAAG,-0.155
4,GGUCACGUCUCAAUCAACUCAUCUCCAGGAGUUUACUCCUGCAAACUCAACAGCUCGCAGUCAAG,0.00181
5,GGUCACGUCUCAAUCAACUCUUUUCCCAGGGAAAACCCUGGCUAUCUCAACAGCUCGCAGUCAAG,0.0183
6,GGUCACGUCUCAAUCAACUCUAUUCCCAGGGAAAACCCUGGCUUACUCAACAGCUCGCAGUCAAG,0.163
7,GGUCACGUCUCAAUCAACUCUUUCUCAGGAGUUUCCUCCUGCAUUCUCAACAGCUCGCAGUCAAG,0.0551
8,GGUCACGUCUCAAUCAACUCAAUUUCCAGGGAAAGCCCUGGUUUAUUCAACAGCUCGCAGUCAAG,0.0401
9,GGUCACGUCUCAAUCAACUCAACUUCCAGGGAAAUCCCUGGUUUACUCAACAGCUCGCAGUCAAG,-0.0814
10,GGUCACGUCUCAAUCAACUCUACUCCCAGGGAAAGCCCUGGUUUACUCAACAGCUCGCAGUCAAG,-0.317
11,GGUCACGUCUCAAUCAACUCAAUCUCCAGGGAAACCCCUGGCAUAUUCAACAGCUCGCAGUCAAG,0.255
12,GGUCACGUCUCAAUCAACUCAUCGCCAGGAGUUUUCUCCUGUAAUCUCAACAGCUCGCAGUCAAG,-0.147
13,GGUCACGUCUCAAUCAACUCAAGUCCCAGGGAAAUCCCUGGCUAAUUCAACAGCUCGCAGUCAAG,-0.32
14,GGUCACGUCUCAAUCAACUCUAUCCCCAGGGAAAACCCUGGUUUACUCAACAGCUCGCAGUCAAG,0.0972
15,GGUCACGUCUCAAUCAACUCUACUCCCAGGGAAAACCCUGGUAAAUUCAACAGCUCGCAGUCAAG,-0.0175
16,GGUCACGUCUCAAUCAACUCAUCUCCAGGAGUUUUCUCCUGUUAAGUCAACAGCUCGCAGUCAAG,-0.176
17,GGUCACGUCUCAAUCAACUCAUCCUCAGGAGUUUACUCCUGCAUAUUCAACAGCUCGCAGUCAAG,0.244
18,GGUCACGUCUCAAUCAACUCUAUUCCAGGAGUUUUCUCCUGUAAACUCAACAGCUCGCAGUCAAG,-0.191
19,GGUCACGUCUCAAUCAACUCAUUUCCCAGGGAAAUCCCUGGCAUUCUCAACAGCUCGCAGUCAAG,0.0458

row,Sequence,binding signal (log2 fold change)
1,GGUCACGUCUCAAUCAACUCAUUUUCAGGAGUUUACUCCUGCUUAGUCAACAGCUCGCAGUCAAG,0.0324
2,GGUCACGUCUCAAUCAACUCAAUCUCAGGAGUUUCCUCCUGUUUACUCAACAGCUCGCAGUCAAG,0.14
3,GGUCACGUCUCAAUCAACUCAUCCUCAGGAGUUUUCUCCUGUUAAGUCAACAGCUCGCAGUCAAG,0.227
4,GGUCACGUCUCAAUCAACUCUUUUCCAGGAGUUUACUCCUGCUAAUUCAACAGCUCGCAGUCAAG,0.122
5,GGUCACGUCUCAAUCAACUCUCCCGAGGGGGGGAAAACCCCUUUACCCUCAACAUCAACAGCUCGCAGUCAAG,-0.386
6,GGUCACGUCUCAAUCAACUCAAAAGAGGGGGGGAAAACCCCUUUGCCCUCAACUUCAACAGCUCGCAGUCAAG,-0.159
7,GGUCACGUCUCAAUCAACUCUCUAGAGGGGGGGAAAACCCCUUUGCCCUCCAAUUCAACAGCUCGCAGUCAAG,0.201
8,GGUCACGUCUCAAUCAACUCACACGAGGGGGGGAAAACCCCUUUACCCUCUAACUCAACAGCUCGCAGUCAAG,0.27
9,GGUCACGUCUCAAUCAACUCAACGCCAGGAGUUUCCUCCUGUUAUCUCAACAGCUCGCAGUCAAG,0.0878
10,GGUCACGUCUCAAUCAACUCAAGUCCCAGGGAAAACCCUGGCAAUCUCAACAGCUCGCAGUCAAG,-0.0349
11,GGUCACGUCUCAAUCAACUCUUUCCCCAGGGAAAUCCCUGGCAAUCUCAACAGCUCGCAGUCAAG,-0.256
12,GGUCACGUCUCAAUCAACUCUUUUUCAGGAGUUUACUCCUGCAAAUUCAACAGCUCGCAGUCAAG,-0.145
13,GGUCACGUCUCAAUCAACUCACUAGAGGGGGGGAAAACCCCUUUACCCUCAUCGUCAACAGCUCGCAGUCAAG,0.311
14,GGUCACGUCUCAAUCAACUCAAUUCCCAGGGAAAGCCCUGGCAAACUCAACAGCUCGCAGUCAAG,-0.0904
15,GGUCACGUCUCAAUCAACUCAUCUCCAGGAGUUUUCUCCUGCUUACUCAACAGCUCGCAGUCAAG,0.253
16,GGUCACGUCUCAAUCAACUCUAUGUCAGGAGUUUACUCCUGUUUUUUCAACAGCUCGCAGUCAAG,-0.0252
17,GGUCACGUCUCAAUCAACUCAAUCCCAGGAGUUUGCUCCUGCAUAUUCAACAGCUCGCAGUCAAG,0.355
18,GGUCACGUCUCAAUCAACUCUAAAGAGGGGGGGAAAACCCCUUUACCCUCACACUCAACAGCUCGCAGUCAAG,-0.058
